In paper PMC4336329 (PLoS ONE, 2015):
In all, about 310,000 compounds went through this assay and about 2,200 (0.71%) showed an effect of 50% or more. The effect is printed as a negative number. The list shows a part of the results.

The molecules below were run against human ether-à-go-go-related gene (hERG) potassium channel (human, UniProt Q12809) (assay: primary screen, population patch clamp on CHO cells stably expressing hERG).
human ether-à-go-go-related gene (hERG) potassium channel, sequence (Q12809 whole entry, looked up): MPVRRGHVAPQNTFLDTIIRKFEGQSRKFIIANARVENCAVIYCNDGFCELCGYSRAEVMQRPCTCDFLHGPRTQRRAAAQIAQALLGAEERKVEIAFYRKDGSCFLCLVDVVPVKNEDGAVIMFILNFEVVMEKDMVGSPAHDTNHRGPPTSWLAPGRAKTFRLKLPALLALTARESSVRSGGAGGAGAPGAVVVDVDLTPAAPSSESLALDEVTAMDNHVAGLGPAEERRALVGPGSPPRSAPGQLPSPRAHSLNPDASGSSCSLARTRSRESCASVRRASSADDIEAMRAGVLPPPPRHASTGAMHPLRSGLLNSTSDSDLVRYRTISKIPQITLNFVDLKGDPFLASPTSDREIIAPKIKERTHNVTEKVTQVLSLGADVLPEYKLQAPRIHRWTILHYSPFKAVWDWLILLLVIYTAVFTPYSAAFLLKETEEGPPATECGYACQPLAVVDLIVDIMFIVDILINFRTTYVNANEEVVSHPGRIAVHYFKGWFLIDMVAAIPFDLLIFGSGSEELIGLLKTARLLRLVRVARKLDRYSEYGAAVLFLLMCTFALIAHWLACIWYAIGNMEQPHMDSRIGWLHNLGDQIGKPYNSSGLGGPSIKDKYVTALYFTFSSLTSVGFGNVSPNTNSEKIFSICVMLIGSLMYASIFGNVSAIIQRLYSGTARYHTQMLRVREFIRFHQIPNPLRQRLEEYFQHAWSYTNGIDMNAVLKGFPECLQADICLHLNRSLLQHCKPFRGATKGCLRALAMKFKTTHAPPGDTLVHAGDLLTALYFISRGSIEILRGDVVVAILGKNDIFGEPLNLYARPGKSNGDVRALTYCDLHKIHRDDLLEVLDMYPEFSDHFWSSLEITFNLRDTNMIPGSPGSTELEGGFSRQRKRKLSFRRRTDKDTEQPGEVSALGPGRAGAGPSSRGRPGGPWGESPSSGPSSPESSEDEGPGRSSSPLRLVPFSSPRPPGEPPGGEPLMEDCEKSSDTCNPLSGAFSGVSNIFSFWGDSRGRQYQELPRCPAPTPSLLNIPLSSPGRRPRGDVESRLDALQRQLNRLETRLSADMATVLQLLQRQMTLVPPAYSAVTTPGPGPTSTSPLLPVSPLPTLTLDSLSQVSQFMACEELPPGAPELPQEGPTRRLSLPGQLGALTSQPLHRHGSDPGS

| Compound | hERG current change (%, negative = inhibition) at 1uM |
| --- | --- |
| Cc1ccc(OCc2n[nH]c(=S)n2-c2ccccc2)cc1C | 13.5% |
| O=C1C2CCCN2C(=O)N1CCCCN1CCN(c2cccc(Cl)c2)CC1 (stereo not drawn) | -49.5% |
| O=C(Nc1ccccc1C(=O)N1CCOCC1)c1ccc(Br)cc1 | -5.8% |
| O=C(CC1C(=O)NCCN1Cc1c(F)cccc1Cl)NCCCN1CCCC1=O (stereo not drawn) | 14% |
| O=C(Nc1ncn[nH]1)c1ccc(Cl)cc1Cl | -10.1% |
| O=C(N/N=C/c1ccc([N+](=O)[O-])o1)C(=O)Nc1ccc(C(=O)O)cc1 | 8.53% |
| CONc1nc2nonc2nc1NOC | 8.72% |
| CC1(C)N=C(c2ccccn2)C(C)(C)N1O | 20.4% |
| Cc1ccc(C2=NN(C(=O)c3ccco3)C(O)(C(F)(F)F)C2)cc1 (stereo not drawn) | 8.98% |
| Cc1nnc(SCC(=O)Nc2ccccc2F)n1Cc1ccco1 | 9.78% |
| Cc1ccc[n+](CC(=O)Nc2ccc([N+](=O)[O-])cc2Cl)c1.[Cl-] | 5.67% |
| COc1ccccc1C(=O)Nc1ccc(S(=O)(=O)N2CCOCC2)cc1 | 1.5% |
| CC(=O)Nc1ccc(S(=O)(=O)Oc2ccc(C=O)cc2)cc1 | 17% |
| CC(C)P(=O)(c1cccc(C(=O)O)c1)C(C)C | 12.4% |
| CC(C)CCN1C(=O)c2ccc(C(=O)OCn3nnc4ccccc4c3=O)cc2C1=O | 6.99% |
| O=C(Nc1cccc(F)c1)C1CCCN1C(=O)OCc1ccccc1 (stereo not drawn) | 7.77% |
| CCn1cnc2cc(NCc3nc4ccccc4n3Cc3ccccc3)ccc21 | -15.2% |
| Cl.O=C(O)C1CCCN(CCC=C(c2ccccc2)c2ccccc2)C1 (stereo not drawn) | -20.5% |
| Cc1nn(-c2ccccc2)c2c1C(c1ccc(O)c(O)c1)N1C(=N2)C(Nc2ccccc2)=Nc2ccccc21 (stereo not drawn) | 14.8% |
| C=CCNc1nnc(SC2CC(=O)N(c3ccc(OC)cc3)C2=O)s1 (stereo not drawn) | 4.89% |
| Cc1cc(/C=C2\C(=N)N3N=C(c4ccco4)SC3=NC2=O)c(C)n1Cc1ccccc1 | 12.5% |
| Fc1ccccc1CSc1ccc(-c2ccco2)nn1 | 7.24% |
| CCc1ccc(NC(=O)CSc2nc3n[nH]c(C)c3c(=N)n2-c2cccc(OC)c2)cc1 | 4.34% |

| Compound | hERG current change (%, negative = inhibition) at 1uM |
| --- | --- |
| Cc1cccc(/C=N/Nc2nncc3ccccc23)c1 | 0.283% |
| Cc1nc(SCC(=O)N2CC(=O)Nc3ccccc32)nc(C)c1C | 14.2% |
| CC1CC2(CCCC2)N(C(=O)c2ccccc2)Cc2ccccc21 (stereo not drawn) | 5.27% |
| CC(C)Cc1csc(NC(=O)C(C)C)c1C(=O)O | 8.19% |
| CCCCn1c(-c2ccc(OC)cc2)nc2c(=O)n(C)c(=O)[nH]c21 | 12.7% |
| COc1ccc(C(NC(=O)/C=C\c2ccco2)c2ccc(OC)c(OC)c2)cc1 (stereo not drawn) | -1.92% |
| N#CCc1ccc(NC(=O)c2ccc(CN3CCc4ccccc4C3)cc2)cc1 | 12.3% |
| COc1ccccc1CNS(=O)(=O)c1ccc(-c2cnc(C3CC3)o2)cc1 | 6.55% |
| Cc1cccc(OC(=O)c2cn(C)nc2C(F)(F)F)c1C | 6.19% |
| Cc1cccc(C)c1N(CC(=O)NN=C1CCCCCC1)S(C)(=O)=O | 5.32% |
| C/C(CC(=O)Nc1ccc(N(C)C)cc1)=N\NC(=O)c1ccc(C(C)(C)C)cc1 | 15.5% |
| COc1ccc(S(=O)(=O)N2CCOCC2)cc1Br | 10.7% |
| Cc1ccc(C2CC(=O)N(c3ccc(F)cc3)C3=C2C(=O)CCC3)cc1 (stereo not drawn) | 12.2% |
| Br.CCCc1nnc2n1N=C(c1ccc(C)cc1)CS2 | 3.77% |
| CC(=O)N1CCC2(CC1)CC(=O)c1cc(OCC(=O)N3CCCC3)ccc1O2 | 13.7% |
| COc1ccc2nc(NC(=O)CSc3nnc(C)s3)sc2c1 | 15.3% |
| Cc1noc(/C=C/N(C)C)c1S(=O)(=O)N1CCc2ccccc21 | -2.65% |
| COc1ccc(CCN(C)C(=O)CN2C(=O)NC3(CCCCCC3)C2=O)cc1OC | 10.8% |
| O=C(c1ncn[nH]1)N1CCN(c2nc(-c3ccccc3)cs2)CC1 | 2.46% |
| Cc1ccc(NC(=O)c2cc(-n3cnnc3)ccc2Cl)c(C)c1 | -16.2% |
| CC(C)(C)C(=O)OCc1nc(-c2ccc(C(F)(F)F)cc2)cs1 | 20.2% |
| O=C(NCc1ccccn1)c1cc2ccccn2n1 | 12% |
| Cc1cc2occ(CC(=O)OCC(=O)Nc3sc4c(c3C#N)CCC(C)C4)c2cc1C (stereo not drawn) | 4.17% |

| Compound | hERG current change (%, negative = inhibition) at 1uM |
| --- | --- |
| O=C(CCC(=O)OCC(=O)c1ccc(F)cc1)NC1CCCCC1 | 3.68% |
| Cc1ccc(CCNS(=O)(=O)c2cc3c(cc2Cl)NC(=O)CO3)cc1 | 6.34% |
| Cc1cc(C)c(C#N)c(SCC(=O)C2CC2)n1 | 17.3% |
| O=c1cc(O)c2sc3nc(-c4ccccc4)cc(C(F)(F)F)c3c2[nH]1 | 5.74% |
| Cc1ccc(N=C2SC(C(=O)NCCc3ccccc3)CC(=O)N2C)cc1C (stereo not drawn) | -9.82% |
| O=C(Nc1ccc2[nH]ccc2c1)c1cccs1 | 13.4% |
| Cc1cccc(NC(=O)CSc2nnc(NC(=O)CN3CCOCC3)s2)c1 | 8.91% |
| COCCOC(=O)c1c(NC(=O)COC(=O)c2ccc(C)o2)sc(C(N)=O)c1C | 5.24% |
| COC(=O)c1cc(S(=O)(=O)NCCc2cccc(C)c2)cn1C | 12.3% |
| CCCN(CC(=O)Nc1ccccc1C)C(=O)c1ccc(N2CCCCCC2)c([N+](=O)[O-])c1 | 11.4% |
| Fc1cccc(/C=C2\CCCC3=C2NC(=S)NC3c2cccc(F)c2)c1 (stereo not drawn) | 15.1% |
| O=C(Nc1nnc(CCc2ccccc2)s1)c1cccc(F)c1 | 13.1% |
| O=C(Nc1ccc(F)cc1)Nc1ccc(N2CCCC2)c(S(=O)(=O)Nc2ccccc2Cl)c1 | 16.7% |
| Cc1ccc(NC(=S)Nc2ccc3nc(-c4ccccn4)c(-c4ccccn4)nc3c2)cc1C | 2.11% |
| COC(=O)c1ccccc1NC(=O)c1ccc[nH+]c1.[Cl-] | 10.9% |
| Cc1csc(=O)n1CC(=O)OCC(=O)Nc1ccc(C(N)=O)cc1 | 2.5% |
| COC(=O)c1c(-c2cccc(OC)c2)csc1N | 10.3% |
| CC(C)(O)C#Cc1ncc(C(F)(F)F)cc1Cl | 8.86% |
| Cc1ccc2cc(CN(C)C(=O)C3CCCO3)c(=O)[nH]c2c1 (stereo not drawn) | 9.68% |
| COc1ccccc1-n1c(-c2ccccc2F)nc2ccccc2c1=O | 12.8% |
| O=C(CSCc1ccccc1)Nc1ccc(S(=O)(=O)N2CCOCC2)cc1 | 0.294% |
| CCc1cccc(NC(=O)CCNS(=O)(=O)c2cccc3nonc23)c1 | 15.7% |
| CCCCC(=O)Nc1cc(Cl)ccc1C(=O)O | 24% |

| Compound | hERG current change (%, negative = inhibition) at 1uM |
| --- | --- |
| Cn1nnnc1SCC(=O)NC(=O)c1cccc([N+](=O)[O-])c1 | 11.9% |
| COc1ccc(-c2coc3cc(O)ccc3c2=O)cc1OC | 9.75% |
| COc1ccc(C2C3CCCCC3(O)CCN2C(=O)c2cccs2)cc1 (stereo not drawn) | 15.9% |
| NC(=O)Cn1c(=O)n(CCC(=O)Nc2ccc(F)cc2)c(=O)c2sccc21 | 14.8% |
| Cc1ccc(CNC(=O)c2cnc3ccccc3n2)cc1 | 10.9% |
| O=S(=O)(c1cnc(Cl)c(Br)c1)N1CCc2ccccc21 | 8.18% |
| COc1ccc(N2CCN(C(=O)COC(=O)COc3ccc(C#N)cc3)CC2)cc1 | 6.82% |
| COc1ccccc1CNC(=O)c1ccc(CS(=O)(=O)c2ccccc2)o1 | 1.42% |
| COc1ccc(NC(=O)CCN2C(=O)c3ccc([N+](=O)[O-])cc3C2=O)c(OC)c1 | 8.77% |
| CCCC(=O)Nc1nc(-c2ccc3c(c2)CCN3S(C)(=O)=O)cs1 | 11.3% |
| CC(=O)c1c(C)nc2ccc(Cl)cn12 | -0.0859% |
| O=C(N/C(=C\c1ccccc1)C(=O)N1CCOCC1)c1ccccc1Cl | 7.43% |
| CCc1cc2c(COC(=O)c3cc(S(=O)(=O)N4CCOCC4)ccc3F)cc(=O)oc2cc1O | 2.42% |
| O=C(NCCN1C(=O)S/C(=C\c2ccccc2F)C1=O)C1CCCN1C(=O)c1cccs1 (stereo not drawn) | 5.12% |
| CCOC(=O)c1cc(C)sc1N1C(=O)C2C3C=CC(C3)C2C1=O (stereo not drawn) | 4.48% |
| CCCc1ccc(OCc2ccc(C(=O)NN)o2)c(OC)c1 | 15.3% |
| CC(Sc1ccccc1)C(=O)NCC1COc2ccccc2O1 (stereo not drawn) | 5.62% |
| COCC(C)NC(=O)CSc1nc2nn(-c3ccccc3)c(=O)c-2c2n1CCCCC2 (stereo not drawn) | 14.5% |
| CCOC(=O)C1CCN(C(=O)CCNS(=O)(=O)c2cc(Br)cnc2N)CC1 | 1.54% |
| CC(O)CNC(=S)Nc1ccccc1 (stereo not drawn) | 4.63% |
| COCCN1Cc2cccc(C(=O)NC3CCCCCC3)c2C1=O | 15.1% |
